Source: PubChem BioAssay AID624417 (National Center for Advancing Translational Sciences (NCATS), 2012)
Screen size: about 410,000 compounds; about 6,400 (1.6%) were called active. Inconclusive means that the source gave no clear call. Such entries were picked first, then a sample of the others. Calls come from the whole dose curve; as a rule, active = well fitted inhibition curve with a large enough effect; inconclusive = small, poorly fitted or top-dose-only effect; inactive = no such curve, though single readings can be large or run the other way. No potency is given beside an inconclusive call; the fits are too rough.

Molecular target: Glucagon-like peptide 1 receptor (Homo sapiens) (UniProt P43220)
Sequence of UniProt P43220 (P43220 whole entry, looked up): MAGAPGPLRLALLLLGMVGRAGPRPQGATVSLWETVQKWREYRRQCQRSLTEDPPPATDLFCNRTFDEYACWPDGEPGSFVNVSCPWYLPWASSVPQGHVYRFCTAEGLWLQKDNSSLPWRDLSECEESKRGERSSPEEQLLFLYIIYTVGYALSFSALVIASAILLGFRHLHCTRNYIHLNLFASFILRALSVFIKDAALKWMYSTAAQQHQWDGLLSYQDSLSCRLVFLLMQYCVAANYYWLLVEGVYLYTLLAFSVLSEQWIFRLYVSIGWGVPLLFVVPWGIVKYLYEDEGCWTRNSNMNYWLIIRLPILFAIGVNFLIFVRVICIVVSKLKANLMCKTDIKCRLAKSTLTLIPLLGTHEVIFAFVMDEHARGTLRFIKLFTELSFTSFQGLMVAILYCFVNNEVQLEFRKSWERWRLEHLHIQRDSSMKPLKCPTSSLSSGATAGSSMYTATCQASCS
Experiment: qHTS of GLP-1 Receptor Inverse Agonists (Inhibition Mode); note: nearly all actives have a fitted effect of over 55% in size
Settings: HEK293 GLP-1R CRE-luciferase, luminescence, 24 h, GLP-1R form is constitutively active; series mostly up to 38.3 µM
Procedure, shortened: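 HEK293 cells stably co-expressing a cAMP-responsive luciferase reporter and constitutively active GLP-1R were seeded, incubated 12 h, then exposed to compounds for 24 h at 37 C. Luminescence was read 12 min after detection reagent; inverse agonists lower signal.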
Potency is the fitted concentration of half-maximal effect; tags give direction and shape of the fitted curve.

SMILES | Potency
N#Cc1ccccc1NC(=O)CSc1nc(-c2ccccc2)cc(C(F)(F)F)c1C#N | inactive
COc1cccc(CNC(=O)CCCc2cn(C)c3ccccc23)c1 | inconclusive [inhibitor, partial curve, poor fit]
CCOc1cc(NC(=O)c2ccco2)c(OCC)cc1NC(=O)Cc1cccc(OC)c1 | inconclusive [inhibitor, single point]
C/C(=N\NC(=O)c1nnn(-c2nonc2N)c1CN1CCCCC1)c1ccccc1O | inactive
CCc1cccc(C)c1N(C(=O)Cn1c(CO)nc2ccccc21)C(C)COC (centres undefined) | inconclusive [inhibitor, partial curve]
O=C(Nc1ccc(Nc2ccccc2)cc1)c1c(Cl)cccc1Cl | inconclusive [inhibitor, partial curve, poor fit]
Cc1c(C(=O)Nc2ccc(F)cc2F)oc2c1-c1nn(Cc3c(F)cccc3Cl)cc1CC2 | inconclusive [inhibitor, single point]
CCC(c1nnnn1-c1c(C)cccc1C)N1CCN(c2ccccn2)CC1 (centres undefined) | inconclusive [inhibitor, single point]
Cc1cc(C(=O)COc2ccccc2Cl)c(C)n1-c1ccc2c(c1)OCO2 | inconclusive [inhibitor, single point]
COc1ccc(NC(=O)CCCn2c(=O)oc3ccccc32)cc1Cl | inactive
Nc1[nH]c(C(=O)c2ccccc2)c(-c2ccccc2Br)c1C(=O)NCCc1c[nH]c2ccccc12 | inconclusive [inhibitor, single point]
CCC1=NN(C(=O)c2ccc(Br)cc2)C(O)(c2ccc(C)cc2)C1 (centres undefined) | inconclusive [inhibitor, partial curve, poor fit]
c1ccc(C(c2ccccc2)c2noc(CN3CCN(C4CCCC4)CC3)n2)cc1 | active: 12.6 µM
CCOC(=O)N1CCN(c2ncc(C(F)(F)F)cc2Cl)CC1 | inconclusive [inhibitor, partial curve, poor fit]
CCOC(=O)c1cnc(SCc2ccc(C)cc2)nc1N | inconclusive [inhibitor, single point]
COc1cc(CN2CCCC(N3CCN(c4ccccc4C)CC3)C2)cc(Cl)c1O (centres undefined) | inconclusive [inhibitor, partial curve, poor fit]
Cc1ccc(CNC(=O)c2c[nH]c3ccc(S(=O)(=O)N4CCOCC4)cc3c2=O)cc1 | inactive
CSc1ccc(Cl)c(C(=O)OCC(=O)N2CCN(c3ccccc3)CC2)c1 | inconclusive [inhibitor, single point]
N#Cc1cnn(-c2cccc(Cl)c2)c1N | inactive
O=C(O)c1nn(Cc2nc3ccccc3o2)c(=O)c2ccccc12 | inactive
COCCNC(=S)N(CCc1c(C)[nH]c2ccc(C)cc12)Cc1ccco1 | inconclusive [inhibitor, partial curve, poor fit]
O=C(CN1CCN(S(=O)(=O)c2ccc(Br)cc2)CC1)Nc1ccc2c(c1)OCCO2 | inconclusive [inhibitor, single point]

SMILES | Potency
CCc1ccc(C2NC(c3ccc(CC)cc3)C([N+](=O)[O-])C(C)(C)C2[N+](=O)[O-])cc1 (centres undefined) | inconclusive [inhibitor, single point]
COc1cccc(-c2csc(-c3c(N)c(C(=O)c4ccc5c(c4)OCO5)n4ccccc34)n2)c1 | inactive
O=C(Cn1c(-c2cccs2)cc2ccccc21)N1CCN(c2ccc(Cl)cc2)CC1 | inconclusive [inhibitor, single point]
COc1cccc(C(Nc2ccccn2)c2c(NC(=O)c3ccco3)sc(C)c2C)c1 (centres undefined) | inconclusive [inhibitor, partial curve, poor fit]
CN1CCN(C(CNS(=O)(=O)c2ccc([N+](=O)[O-])cc2)c2ccc(F)cc2)CC1 (centres undefined) | active: 11.2 µM
O=C(CN1CCC(n2nnc3cc(C(F)(F)F)ccc32)CC1)Nc1ccc2c(c1)CCC2 | active: 4.47 µM
C=CCNC(=S)NNC(=O)CCC(O)CCCCC (centres undefined) | inconclusive [inhibitor, partial curve, poor fit]
O=C(O)c1cccnc1Nc1ccc(Cl)cc1 | inconclusive [inhibitor, partial curve, poor fit]
Cc1cccc(OCc2nc(C#N)c(N3CC(C)CC(C)C3)o2)c1 (centres undefined) | inconclusive [inhibitor, partial curve, poor fit]
Cc1ccc(CSCCC(=O)NCCc2ccc(Cl)cc2)cc1 | inconclusive [inhibitor, partial curve]
CCC(NC(=O)CNC(=O)CNC(=O)c1ccc(Cl)cc1Cl)c1ccc(C)cc1 (centres undefined) | inconclusive [inhibitor, single point]
CC(=O)Nc1ccc(S(=O)(=O)NCCSCc2ccc(Cl)cc2Cl)cc1 | inconclusive [inhibitor, partial curve, poor fit]
Clc1ccc(-n2cc(COCc3ccccc3)nn2)cc1 | inconclusive [inhibitor, single point]
CCc1ccc(NC(=O)Nc2ccncc2)cc1 | inconclusive [inhibitor, single point]
Cc1cc(Br)cc(C)c1NC(=O)c1sc2ncn(Cc3cccc(F)c3)c(=O)c2c1C | inconclusive [inhibitor, full curve, poor fit]
O=C1C=C(c2ccc(Cl)cc2)C(=O)N1Nc1ccccc1 | inconclusive [inhibitor, partial curve, poor fit]
O=S(=O)(Oc1ccc(C(=S)N2CCOCC2)cc1)c1ccc(Cl)cc1 | inconclusive [inhibitor, single point]
CSCCC(NS(=O)(=O)c1cccc(C(F)(F)F)c1)C(=O)N(C)CCOc1ccc(Cl)cc1 (centres undefined) | inconclusive [inhibitor, partial curve, poor fit]
O=C(NC1CCCCCC1)C1CCN(C(=O)c2cccc(Cl)c2)CC1 | inconclusive [inhibitor, full curve, poor fit]
Cc1cc(C)c2nc(N3CCC(C(=O)NCc4cccnc4)CC3)sc2c1 | inactive
O=C(Nc1ccccc1)c1ccccc1Oc1ccc(C(F)(F)F)cc1[N+](=O)[O-] | inconclusive [inhibitor, single point]
Cc1nc(-c2ccc(S(=O)(=O)N3CCN(c4cccc(C(F)(F)F)c4)CC3)cc2)co1 | inconclusive [inhibitor, single point]

SMILES | Potency
CCn1c(CNC(=O)COc2ccc(C(C)C)cc2)nnc1SCC(=O)Nc1cc(F)ccc1C | inactive
CCCOc1ccc(-c2nonc2NC(=O)c2ccco2)cc1OCCC | inactive
O=C(CCn1cnc2ccccc21)N/N=C/c1ccccc1O | inconclusive [inhibitor, single point]
COc1ccc(C2c3[nH]c4ccccc4c3CCN2Cc2ccoc2)c(F)c1 (centres undefined) | active: 4.47 µM
Cc1cc(NC(=O)CSc2nc(C(C)C)nc3ccccc23)no1 | inconclusive [inhibitor, partial curve, poor fit]
CC(CCN1CCN(c2ccccc2)CC1)c1ccccc1 (centres undefined) | inconclusive [inhibitor, single point]
Cc1ccc(/C=N/NC(=O)Nc2ccccc2)o1 | inactive
Cc1ccc(CN(Cc2ccco2)C(=O)c2ccccc2Br)o1 | inconclusive [inhibitor, single point]
Cc1ccc(OC(=O)c2cccc(S(=O)(=O)N3CCCC3)c2)c(-n2nc3ccccc3n2)c1 | inconclusive [inhibitor, partial curve]
Cc1cc(/C=C2/C(=N)N3C(=NC2=O)SN=C3S(C)(=O)=O)c(C)n1-c1ccccc1F | inconclusive [inhibitor, single point]
N#C/C(=C/c1ccc(N2CCCCC2)o1)C(=O)Nc1ccc2ccccc2c1 | inconclusive [inhibitor, single point]
Cc1c([C@H]2[C@@H](CC#N)C2(C)C)c2ccccc2n1C | inconclusive [inhibitor, partial curve, poor fit]
COc1cc(NC(=O)Nc2ccccc2OC)c(OC)cc1NC(=O)CN1CCCCC1 | inconclusive [inhibitor, partial curve, poor fit]
CCN(c1ccccc1)S(=O)(=O)c1cc(NC(=O)C2CC2)ccc1Cl | inconclusive [inhibitor, single point]
CCCCn1nnnc1NCc1ccc(N2CCCC2)cc1 | inconclusive [inhibitor, single point]
c1ccc(COc2ncnc3c2ncn3CCCNC2CCN(Cc3ccccc3)CC2)cc1 | active: 7.08 µM
COc1ccc(OC)c(CNC(=O)CCSCc2ccc(F)cc2Cl)c1 | inconclusive [inhibitor, single point]
Cc1ccc(C(=O)NC(=C(Cl)Cl)S(=O)(=O)c2ccccc2)cc1 | inconclusive [inhibitor, single point]
Cc1cc(C(=O)NC2CCCc3c2cnn3-c2ccc(C)c(C)c2)no1 (centres undefined) | inconclusive [inhibitor, partial curve, poor fit]
O=C(c1cc2ccccc2o1)N1CCN(S(=O)(=O)c2ccc(Cl)s2)CC1 | inconclusive [inhibitor, single point]
